# Results: PubChem BioAssay AID686978 (National Center for Advancing Translational Sciences (NCATS), 2013)
# The campaign covered roughly 420,000 compounds. About 64,000 (15%) were called active. The inconclusive results got no clear call from the source; some entries with a clear call stand among them for comparison. Calls follow the shape of the dose curve; as a rule, active = well fitted inhibition curve with a large enough effect; inconclusive = small, poorly fitted or top-dose-only effect; inactive = flat fitted curve, though single readings scatter. Potencies of inconclusive entries are left out as doubtful fits.
# Test: qHTS for Inhibitors of human tyrosyl-DNA phosphodiesterase 1 (TDP1): qHTS in cells in absence of CPT; also: nearly all actives have a fitted effect of over 55% in size
# Conditions: DT40 Tdp1-/- hTDP1 cells, no CPT, ATP luminescence, 48 h; activity change, negative = growth inhibition: at 46.2 µM (top of the series) unless noted
# Outline: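 Cells were dispensed at 400 per well, compounds added by pin tool, plates incubated ≥48 hr at 37 °C, then CellTiter-Glo added for 30 min at room temperature before luminescence reading. Line: DT40 Tdp1-/- complemented with hTDP1; camptothecin omitted.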
# % is scaled to controls: 0 for no effect and ±100 for the full control effect; potency is read from the fitted curve at half-maximal effect; tags tell the direction and shape of the fitted curve.
Structure (SMILES),Potency,"activity change, negative = growth inhibition"
CN(C(=O)c1ccccc1C(=O)OCC(=O)NCc1ccccc1)C1CCCCC1,"inconclusive [inhibitor, single point]",–
CCc1ccccc1NC(=O)NC(CC)Cn1nnc2ccccc2c1=O (stereo not given),–,inactive: -13.1%
CCOc1ccccc1NS(=O)(=O)c1cc(-c2cnc(C3CC3)o2)ccc1C,"inconclusive [inhibitor, partial curve, poor fit]",–
Cc1ccc2nc(Cl)c(/C=N/Nc3ccc(C(=O)O)cc3)cc2c1,"inconclusive [inhibitor, full curve]",–
CC(Cc1ccccc1)C(=O)N(C)Cc1ccccc1 (stereo not given),–,inactive: -13.9%
CCCCCn1c(=O)[nH]c2cc(C(=O)N3CCN(Cc4ccc5c(c4)OCO5)CC3)ccc2c1=O,active: 10.3 µM,–
CCCn1nnnc1SCC(=O)N1CCCC1,–,inactive: -6.73%
COc1ccc(OC)c(NC(=O)CSc2ncnc3sc(C)cc23)c1,"inconclusive [inhibitor, single point]",–
CCOC(=O)C1=CC[C@@H](c2cc3ccc(OC)cc3n2C)N(S(=O)(=O)c2ccc(C)cc2)[C@H]1C(=O)OCC,"inconclusive [inhibitor, partial curve]",–
Nc1nc(CN2CCN(Cc3ccc4c(c3)OCO4)CC2)nc(Nc2ccccc2)n1,"inconclusive [inhibitor, single point]",–
O=C(Nc1ccc(F)cc1)c1cccc(N2C(=O)C3C4C=CC(C4)C3C2=O)c1 (stereo not given),"inconclusive [inhibitor, single point]",–
O=C(C1CCC(=O)N(C2CCCC2)C1)N1CCC(Oc2ccccc2Cl)CC1 (stereo not given),"inconclusive [inhibitor, single point]",–
COc1ccc(C(=O)NCc2ccc(Cl)c(Cl)c2)cc1OC,"inconclusive [inhibitor, partial curve]",–
CSc1ccccc1NC(=O)C(=O)c1c[nH]c2ccccc12,"inconclusive [inhibitor, partial curve, poor fit]",–
CN(C)S(=O)(=O)c1cccc(NC(=O)c2cc([N+](=O)[O-])ccc2N2CCCCC2)c1,"inconclusive [inhibitor, single point]",–
C[C@@H]1COc2cccc(N3CCC[C@@H]3CO)c2S(=O)(=O)N1,–,inactive: -3.17%
CC(C)CC1=C/C(=C/c2ccc(-c3ccccc3)o2)C(=O)O1,active: 16.4 µM,–
CNC(=O)c1ccc(CN(C)C(=O)c2cccc(S(=O)(=O)N3CCc4ccccc4C3)c2)cc1,"inconclusive [inhibitor, single point]",–
Cc1cc2n(n1)CCC(=O)N2Cc1ccc(C(=O)Nc2cccc(C(F)(F)F)c2)cc1,active: 14.6 µM,–
CC(=O)N1c2ccc(S(=O)(=O)NCCC(=O)N(C)Cc3ccccc3)cc2CC1C (stereo not given),"inconclusive [inhibitor, single point]",–
C=CC(C1=CC(=O)C(OC)=CC1=O)c1ccc(O)cc1 (stereo not given),"inconclusive [inhibitor, single point]",–
O=C(c1ccc(F)cc1)N1CCCC(C(=O)N2CCN(c3ccccc3)CC2)C1 (stereo not given),–,inconclusive: -33.5% [inhibitor]
CCOc1ccccc1-n1nnnc1SCC(=O)NC(=O)NCc1ccco1,"inconclusive [inhibitor, single point]",–
CCOC(=O)c1ccc2nc(NC(=O)c3cccs3)sc2c1,"inconclusive [inhibitor, single point]",–

Structure (SMILES),Potency,"activity change, negative = growth inhibition"
Cc1cc(C)n2c(Nc3ccc4c(c3)OCCO4)c(C3CC3)nc2n1,active: 18.4 µM,–
c1ccc2c(c1)C(=NC1CCCCC1)NC2=NC1CCCCC1,active: 14.6 µM,–
O=C(CSc1nnc(-c2ccccc2O)o1)Oc1ccc(OCc2ccccc2)cc1,active: 13 µM,–
Clc1ccc(CSc2nnc3c(n2)[nH]c2ccccc23)cc1,"inconclusive [inhibitor, partial curve, poor fit]",–
CCOC(=O)C1=C(c2ccccc2)c2ccccc2OC1C(=O)OCC (stereo not given),"inconclusive [inhibitor, single point]",–
CN(Cc1nc2ccccc2c(=O)[nH]1)Cc1cc(=O)oc2ccc3ccccc3c12,"inconclusive [inhibitor, single point]",–
CN(C)C(=O)CCc1ccc2c3c([nH]c2c1)[C@]1(C)[C@@H](C(=O)N2CCCCC2)C[C@H](CC(=O)NCCN2CCOCC2)C(=O)N1CC3,–,inactive: 5.46%
O=C(c1ccccc1Nc1ccc(SC(F)F)cc1)N1CCCCCC1,"inconclusive [inhibitor, single point]",–
Cc1ccc(Nc2c(-c3ccc(C)cc3)nc3c(C)cccn23)cc1,"inconclusive [inhibitor, single point]",–
O=C(Nc1nccs1)c1ccc(N2CCOCC2)c([N+](=O)[O-])c1,active: 20.6 µM,–
CCCOc1ccc2[nH]c(C(=O)N/N=C/c3cc(OC)c(OC)c(OC)c3)cc2c1,active: 16.4 µM,–
CCOC(=O)N1CCN(c2ccc([N+](=O)[O-])cc2)CC1,"inconclusive [inhibitor, single point]",–
CC(C)Oc1cccc(C(=O)NC(=S)Nc2cccc(NC(=O)c3ccccc3Cl)c2)c1,"inconclusive [inhibitor, single point]",–
N#Cc1ccsc1NC(=O)CN1CCCCCC1,"inconclusive [inhibitor, single point]",–
COc1cccc(-c2ccc3ncnc(N(C)C)c3c2)c1,"inconclusive [inhibitor, single point]",–
CCCCCCC#Cc1cncc(C(=O)NNC(=O)Nc2cc(Cl)cc(Cl)c2)c1,"inconclusive [inhibitor, single point]",–
O=C(c1[nH]c(C(F)(F)F)nc1-c1ccccc1)N1CCN(c2ncccn2)CC1,"inconclusive [inhibitor, single point]",–
Cc1cccc(Nc2nc(-c3ccncc3)cs2)c1,"inconclusive [inhibitor, partial curve]",–
Cc1nc(-c2ccc(F)cc2)c(CC(=O)N2CCN(S(=O)(=O)c3cccc(F)c3)CC2)s1,active: 14.6 µM,–
CCc1cccc(C)c1NC(=O)CCS(=O)(=O)c1ccc2c(c1)oc(=O)n2C,active: 14.6 µM,–
CN(C)S(=O)(=O)c1ccc(Cl)c(NC(=O)CN2CCC(Cc3ccccc3)CC2)c1,"inconclusive [inhibitor, single point]",–
O=S(=O)(c1ccccc1)N1CCN(CC(O)COc2ccc3c(c2)CCC3)CC1 (stereo not given),"inconclusive [inhibitor, single point]",–
Oc1ccccc1C1SC(c2ccccc2O)SC(c2ccccc2O)S1 (stereo not given),"inconclusive [inhibitor, single point]",–
COc1cccc(C(=O)CC(C#N)c2ccc(F)cc2)c1 (stereo not given),–,inactive: 11.4%

Structure (SMILES),Potency,"activity change, negative = growth inhibition"
CCOc1c(Br)cc(/C=C2\C(=O)N(CCC#N)N=C2C)cc1OC,active: 29.1 µM,–
COc1ccccc1-c1noc(CCCC(=O)NC2CCCCC2)n1,–,inactive: -11.7%
CC(C)OC(=O)c1c(NC(=O)c2cccs2)sc2c1CCCC2,–,inactive: -20.9%
CNC(=O)c1c(NC(=O)Cc2coc3ccc(OC)cc23)sc2c1CCCC2,active: 20.6 µM,–
CCN(c1ccccc1)S(=O)(=O)c1ccc(C(=O)NNC(=O)c2ccccc2F)cc1,–,inactive: -14%
O=C(Cc1ccc(Cl)cc1)Nc1ccc2oc(-c3ccccc3F)nc2c1,"inconclusive [inhibitor, partial curve]",–
COc1ccccc1C(=O)NCCN1CCN(C(=O)c2ccccc2OC)CC1,–,inactive: -6.85%
COCCSc1ccccc1C(=O)N1CCC(Cc2ccccc2)CC1,–,inactive: -27.3%
O=C(/C=C/c1ccc(Cl)cc1Cl)Nc1cccc(S(=O)(=O)NC2=NCCCCC2)c1,"inconclusive [inhibitor, single point]",–
CN(C(=S)NC(=O)CCCOc1ccc(Cl)cc1Cl)c1ccccc1,active: 15.8 µM,–
CCOC(=O)C(=Cc1cc(=O)c(OC)co1)C(=O)OCC,active: 0.731 µM,–
CCCN1C(=O)/C(=C2/C=Cc3ccccc3N2CC)SC1=S,–,inconclusive: -31.9% [inhibitor]
NS(=O)(=O)c1ccc(NC(=O)c2cc(Cl)ccc2Cl)cc1,"inconclusive [inhibitor, single point]",–
Cc1cccnc1C(NC(=O)C1CCN(Cc2ccc(Oc3ccccc3)cc2)CC1)c1ccc(F)cc1 (stereo not given),"inconclusive [inhibitor, single point]",–
O=c1[nH]c(=S)[nH]c2c1C(c1ccc(Br)cc1)c1c([nH]c(=S)[nH]c1=O)O2,–,inactive: -17.3%
Cc1c(Cl)c([N+](=O)[O-])nn1CC(=O)NCc1ccc(Cl)cc1,–,inactive: 0.523%
C=C(C)CNC(=S)N1CCN(C(c2ccccc2)c2ccccc2)CC1,"inconclusive [inhibitor, partial curve, poor fit]",–
Fc1ccc(-c2nc(-c3cnccn3)no2)c(Cl)c1,"inconclusive [inhibitor, partial curve]",–
O=C(CSc1nc2ccc(Nc3nc(N4CCOCC4)nc(N4CCOCC4)n3)cc2s1)N1CCOCC1,active: 18.4 µM,–
O=C(Nc1ccc(Cl)cc1)c1cc(S(=O)(=O)NC2CCCCCC2)ccc1F,"inconclusive [inhibitor, single point]",–
CC(C)Oc1ccc(F)cc1-c1cc(C(=O)NCc2cc(C(F)(F)F)cc(C(F)(F)F)c2)[nH]n1,active: 20.6 µM,–
Cc1nnsc1NC(=O)OCc1ccc(C(F)(F)F)cc1,"inconclusive [inhibitor, single point]",–
